# Experimental data reported in PubChem BioAssay AID504832 (National Center for Advancing Translational Sciences (NCATS), 2011).
# The campaign covered roughly 310,000 compounds. About 18,000 (5.8%) were called active. This list was built around the results that the source calls inconclusive (neither active nor inactive); the mix of calls is not that of the screen. Calls come from the whole dose curve; as a rule, active = well fitted inhibition curve with a large enough effect; inconclusive = small, poorly fitted or top-dose-only effect, or another doubt; inactive = no such curve, though single readings can be large or run the other way. No potency is given beside an inconclusive call; the fits are too rough.
# Assay: Primary qHTS for delayed death inhibitors of the malarial parasite plastid, 48 hour incubation
# Details: P. falciparum luciferase growth in erythrocytes; series mostly up to 28.7 µM; activity change, negative = inhibition: at the top concentration
# Procedure, shortened: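 In quantitative HTS format, infected erythrocytes bearing luciferase-reporter parasites were treated for a single generation at 37 C. Luminescence after adding detection reagent served as the growth measure.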
# % is set by controls: 0 for no effect and ±100 for the full control effect; potency is the fitted concentration of half-maximal effect; tags give direction and shape of the fitted curve.
SMILES,Potency,"activity change, negative = inhibition"
CC(C)OC(=O)C1C2c3ccccc3C(c3ccccc32)C1C(=O)O (stereo not given),"inconclusive [inhibitor, partial curve]",
O=C(NCc1ccccn1)Nc1ccccc1F,,inactive: 44.4%
COCCN(Cc1nc2ccccc2c(=O)[nH]1)C(=O)COc1cccc(C(C)=O)c1,"inconclusive [inhibitor, single point]",
CC(C)Cc1nc2oc3c(N4CCN(CCO)CC4)ncnc3c2c2c1CCCC2,"inconclusive [inhibitor, single point]",
CCOC(=O)COc1ccc2ccccc2c1/C=C/[N+](=O)[O-],"inconclusive [inhibitor, single point]",
Cc1ccc(S(=O)(=O)NC2=NCN(C(C)C)CN2)cc1,,inactive: -9.82%
CCc1ccc(NC(=O)C(C)OC(=O)c2ccc(N3CCCC3)c([N+](=O)[O-])c2)cc1 (stereo not given),,inactive: -0.23%
Clc1cccc(C(c2ccc3nc[nH]c3c2)n2ccnc2)c1 (stereo not given),active: 13.5 µM,
COc1ccc(C(=O)NC2CCCCCC2)cc1OC1CCN(C(C)=O)CC1,,inactive: 3.15%
CC(C)C(=O)Nc1cc(C(F)(F)F)ccc1N1CCOCC1,"inconclusive [inhibitor, partial curve]",
Cc1ccc(-c2nnc(Nc3ccc4c(c3)OCO4)c3ccccc23)cc1S(N)(=O)=O,"inconclusive [inhibitor, single point]",
CCNC(=O)c1ccccc1NC(=O)c1cccc(S(=O)(=O)N2CCOCC2)c1,"inconclusive [inhibitor, single point]",
CC(NCc1ccc(F)cc1)C(=O)Nc1cc(S(=O)(=O)N2CCCCC2)ccc1Cl (stereo not given),"inconclusive [inhibitor, partial curve, poor fit]",
O=C(O)c1cccc(N2C(=O)/C(=C/c3ccc([N+](=O)[O-])cc3)C=C2c2ccccc2)c1,,inactive: -66.2%
CCN1C(=O)N(C)[C@@H](c2ccccc2)C(C(=O)OC)=C1C,"inconclusive [inhibitor, single point]",
Cc1ccccc1NC(=O)c1ccccc1-c1ccccc1,,inactive: -20.9%
Cc1cccc(C)c1NC(=S)NCc1ccccc1,"inconclusive [inhibitor, partial curve]",
COc1cccc(NC(=O)CN2CCN(S(=O)(=O)c3ccc(C(C)C)cc3)CC2)c1,"inconclusive [inhibitor, single point]",
Cc1cccc(-n2cc(-c3ccccc3)c3c(=O)[nH]cnc32)c1,"inconclusive [inhibitor, partial curve]",
COCCn1c(C)c(C)c(S(=O)(=O)c2ccccc2)c1N,,inactive: -17.4% [at 0.00184 µM]
